Measurements from patent US10299477B2 (priority 2015, dated 2019).

Tests used:
Type in all cases: in vivo
Alternaia brassicicola = assay: Test Example C: Alternaria sooty spot on cabbage; conditions: 250 ppm spray, preventive; control value class
Description: [Test Example C] Alternaria Sooty Spot on Cabbage
Seeds of a test plant (cabbage variety: Shikidori) were planted followed by cultivating until the cotyledons extended.

[1] = test system: Blumeria graminis f sp. hordei; assay: Test Example D: Powdery mildew on barley; conditions: 250 ppm spray, preventive; control value class
Description: [Test Example D] Powdery Mildew on Barley
After the sprayed dilutions were dried, conidia of Blumeria graminis f sp. hordei were inoculated to the plants by shaking off.

Plasmopara viticola = assay: Test Example G: Downy mildew on vine; conditions: 250 ppm spray (2.5 ml/pot), preventive; 7-10 days after inoculation; control value class
Description: [Test Example G] Downy Mildew on Vine
Seeds of a test plant (grape variety: Neomuscat) were planted followed by cultivating until three to four first leaves appeared. […] After the sprayed dilutions were dried, a zoosporangia suspension (1-2×10^4 zoosporangia/ml) of Plasmopara viticola was inoculated to the plants by spraying.

Puccinia recondita = assay: Test Example E: Brown rust on wheat; conditions: 250 ppm spray, preventive; control value class
Description: [Test Example E] Brown Rust on Wheat

Botrytis cinerea = assay: Test Example B: Gray mold on tomato; conditions: 250 ppm spray, preventive; control value class
Description: [Test Example B] Gray Mold on Tomato
Seeds of a test plant (tomato variety: Oogata Fukuju) were planted followed by cultivating until three to five first leaves (true leaves) appeared.

Compound | Test C control value (Alternaria sooty spot on cabbage) (Alternaia brassicicola) | Test D control value (powdery mildew on barley) [1] | Test G control value (downy mildew on vine) (Plasmopara viticola) | Test E control value (brown rust on wheat) (Puccinia recondita) | Test B control value (gray mold on tomato) (Botrytis cinerea)
Cn1c(-c2c(F)cccc2F)c(-c2ccc(Cl)cc2Cl)cc(Cl)c1=O [Compound 348] | L (L shows 50% or less of control values) | L (L shows 50% or less of control values) | L (L shows 50% or less of control values) | L (L shows 50% or less of control values) | L (L shows 50% or less of control values)
CCn1c(-c2c(F)cccc2F)c(-c2cccc(Cl)c2Cl)ccc1=O [Compound 349] | H (H shows more than 50% of control values) | H (H shows more than 50% of control values) | H (H shows more than 50% of control values) | H (H shows more than 50% of control values) | H (H shows more than 50% of control values)
CCn1c(-c2c(F)cccc2F)c(-c2cccc(Cl)c2Cl)cc(Cl)c1=O [Compound 350] | H (H shows more than 50% of control values) | H (H shows more than 50% of control values) | L (L shows 50% or less of control values) | H (H shows more than 50% of control values) | H (H shows more than 50% of control values)
C#Cc1cc(-c2cc(OC)ccc2Cl)c(-c2c(F)cccc2F)n(CC)c1=O [Compound 351] | H (H shows more than 50% of control values) | H (H shows more than 50% of control values) | L (L shows 50% or less of control values) | H (H shows more than 50% of control values) | H (H shows more than 50% of control values)
CCn1c(-c2c(F)cccc2F)c(-c2cc(OC)ccc2Cl)cc(C2CC2)c1=O [Compound 352] | H (H shows more than 50% of control values) | L (L shows 50% or less of control values) | L (L shows 50% or less of control values) | L (L shows 50% or less of control values) | H (H shows more than 50% of control values)
CCn1c(-c2c(F)cccc2F)c(-c2cccc(C#N)c2)cc(Cl)c1=O [Compound 353] | L (L shows 50% or less of control values) | L (L shows 50% or less of control values) | L (L shows 50% or less of control values) | L (L shows 50% or less of control values) | H (H shows more than 50% of control values)
CCn1c(-c2c(F)cc(F)cc2F)c(-c2cc(Cl)ccc2Cl)ccc1=O [Compound 354] | H (H shows more than 50% of control values) | H (H shows more than 50% of control values) | H (H shows more than 50% of control values) | H (H shows more than 50% of control values) | H (H shows more than 50% of control values)
CCn1c(-c2c(F)cc(F)cc2F)c(-c2cc(Cl)ccc2Cl)cc(Cl)c1=O [Compound 355] | H (H shows more than 50% of control values) | H (H shows more than 50% of control values) | L (L shows 50% or less of control values) | H (H shows more than 50% of control values) | H (H shows more than 50% of control values)
CCN1C(=O)CCC(c2cc(F)ccc2Cl)=C1c1c(F)cccc1F [Compound 356] | H (H shows more than 50% of control values) | H (H shows more than 50% of control values) | H (H shows more than 50% of control values) | H (H shows more than 50% of control values) | H (H shows more than 50% of control values)
CN1C(=O)CCC(c2cc(F)ccc2Cl)=C1c1c(F)cccc1F [Compound 357] | H (H shows more than 50% of control values) | H (H shows more than 50% of control values) | H (H shows more than 50% of control values) | H (H shows more than 50% of control values) | H (H shows more than 50% of control values)
CCn1c(-c2c(F)cccc2F)c(-c2cc(F)ccc2Cl)ccc1=O [Compound 358] | H (H shows more than 50% of control values) | H (H shows more than 50% of control values) | H (H shows more than 50% of control values) | H (H shows more than 50% of control values) | H (H shows more than 50% of control values)
CCn1c(-c2c(F)cccc2F)c(-c2cc(F)ccc2Cl)cc(Cl)c1=O [Compound 360] | H (H shows more than 50% of control values) | H (H shows more than 50% of control values) | L (L shows 50% or less of control values) | H (H shows more than 50% of control values) | H (H shows more than 50% of control values)
CCn1c(-c2c(F)cccc2F)c(-c2cc(F)ccc2Cl)cc(Br)c1=O [Compound 361] | L (L shows 50% or less of control values) | L (L shows 50% or less of control values) | L (L shows 50% or less of control values) | H (H shows more than 50% of control values) | H (H shows more than 50% of control values)
Cn1c(-c2c(F)cccc2F)c(-c2cc(F)ccc2Cl)cc(Cl)c1=O [Compound 362] | H (H shows more than 50% of control values) | H (H shows more than 50% of control values) | H (H shows more than 50% of control values) | H (H shows more than 50% of control values) | H (H shows more than 50% of control values)
Cn1c(-c2c(F)cccc2F)c(-c2cc(F)ccc2Cl)cc(Br)c1=O [Compound 363] | H (H shows more than 50% of control values) | H (H shows more than 50% of control values) | H (H shows more than 50% of control values) | H (H shows more than 50% of control values) | H (H shows more than 50% of control values)
